# Some of the results follow.
# Key:
# Experiment in all cases: glycan array binding signal (z-score within array); higher = stronger binding
# Details in all cases: glycan notation: IUPAC condensed, linker removed
# [1] = biological target: Fuc(a1-2)[GalNAc(a1-3)]Gal(b1-4)[Fuc(a1-3)]GlcNAc
# Procedure, shortened: (§1)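 Negative Z-scores can be read as non-binding. The Z-score is calculated within each array and then averaged across arrays of one protein sequence at different concentrations or buffers and across linkers. Arrays, 3228 in all, were curated from the Consortium for Functional Glycomics database and kept only where the protein sequence was available.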
# [2] = biological target: Fuc(a1-2)[GalNAc(a1-4)]Gal(b1-4)GlcNAc
# Procedure, shortened: as §1
# [3] = biological target: Fuc(a1-2)[GalNAc(b1-3)]Gal
# Procedure, shortened: as §1
# [4] = biological target: Fuc(a1-3)GlcNAc
# Procedure, shortened: as §1
# [5] = biological target: Fuc(a1-3)[Gal(b1-4)]Glc6S
# Procedure, shortened: as §1
# [6] = biological target: Fuc(a1-3)[Gal(b1-4)]GlcNAc
# Procedure, shortened: as §1
# [7] = biological target: Fuc(a1-3)[Gal(b1-4)]GlcNAc(b1-2)Man(a1-3)[Fuc(a1-3)[Gal(b1-4)]GlcNAc(b1-2)Man(a1-6)]Man(b1-4)GlcNAc(b1-4)GlcNAc
# Procedure, shortened: as §1
# [8] = biological target: Fuc(a1-3)[Gal(b1-4)]GlcNAc(b1-2)Man(a1-6)[Gal(b1-4)GlcNAc(b1-2)Man(a1-3)]Man(b1-4)GlcNAc(b1-4)GlcNAc
# Procedure, shortened: as §1
# [9] = biological target: Fuc(a1-3)[Gal(b1-4)]GlcNAc(b1-3)Gal(b1-3)[Fuc(a1-4)]GlcNAc
# Procedure, shortened: as §1
# [10] = biological target: Fuc(a1-3)[Gal(b1-4)]GlcNAc(b1-4)Gal(b1-4)[Fuc(a1-3)]GlcNAc
# Procedure, shortened: as §1
# [11] = biological target: Fuc(a1-3)[Gal(b1-4)]GlcNAc(b1-4)Gal(b1-4)[Fuc(a1-3)]GlcNAc(b1-4)Gal(b1-4)[Fuc(a1-3)]GlcNAc
# Procedure, shortened: as §1
# [12] = biological target: Fuc(a1-3)[Gal(b1-4)]GlcNAc6S
# Procedure, shortened: as §1
# [13] = biological target: Fuc(a1-3)[Gal3S(b1-4)]Glc6S
# Procedure, shortened: as §1
# [14] = biological target: Fuc(a1-3)[Gal3S(b1-4)]GlcNAc
# Procedure, shortened: as §1
# [15] = biological target: Fuc(a1-3)[Gal3S(b1-4)]GlcNAc6S
# Procedure, shortened: as §1
# [16] = biological target: Fuc(a1-3)[GalNAc(b1-4)]GlcNAc
# Procedure, shortened: as §1
# [17] = biological target: Fuc(a1-4)GlcNAc
# Procedure, shortened: as §1
# [18] = biological target: Fuc(b1-3)GlcNAc
# Procedure, shortened: as §1
# [19] = biological target: Gal(a1-2)Gal
# Procedure, shortened: as §1
# [20] = biological target: Gal(a1-3)Gal
# Procedure, shortened: as §1
# [21] = biological target: Gal(a1-3)Gal(b1-3)GlcNAc
# Procedure, shortened: as §1
# [22] = biological target: Gal(a1-3)Gal(b1-4)Glc
# Procedure, shortened: as §1
# [23] = biological target: Gal(a1-3)Gal(b1-4)GlcNAc
# Procedure, shortened: as §1
# [24] = biological target: Gal(a1-3)Gal(b1-4)[Fuc(a1-3)]GlcNAc
# Procedure, shortened: as §1
# [25] = biological target: Gal(a1-3)GalNAc
# Procedure, shortened: as §1
# [26] = biological target: Gal(a1-3)[Gal(a1-4)]Gal(b1-4)GlcNAc
# Procedure, shortened: as §1
# [27] = biological target: Gal(a1-4)Gal(b1-4)Glc
# Procedure, shortened: as §1
# [28] = biological target: Gal(a1-4)Gal(b1-4)GlcNAc
# Procedure, shortened: as §1
# [29] = biological target: Gal(a1-4)GlcNAc
# Procedure, shortened: as §1
# [30] = biological target: Gal(a1-6)Glc
# Procedure, shortened: as §1
binder,measurement,setting,value
"R410P1E11 (Tachypleus tridentatus), TAL2_TACTR (protein) MEKGTPPTHDSDNWMGRAKEIGNGGWDQFQFLFFDPNGYLYAVSNDKLYKASPPQSDTDNWIARATEIGSGGWSGFKFLFFHPNGYLYAVRGQRFYKALPPVSNQD",glycan array binding signal (z-score),[1],1.41
same,glycan array binding signal (z-score),[2],5.65
same,glycan array binding signal (z-score),[3],0.034
same,glycan array binding signal (z-score),[4],-0.483
same,glycan array binding signal (z-score),[5],-0.321
same,glycan array binding signal (z-score),[6],-0.121
same,glycan array binding signal (z-score),[7],-0.294
same,glycan array binding signal (z-score),[8],-0.563
same,glycan array binding signal (z-score),[9],-0.255
same,glycan array binding signal (z-score),[10],-0.276
same,glycan array binding signal (z-score),[11],-0.724
same,glycan array binding signal (z-score),[12],-0.234
same,glycan array binding signal (z-score),[13],-0.22
same,glycan array binding signal (z-score),[14],-0.106
same,glycan array binding signal (z-score),[15],-0.25
same,glycan array binding signal (z-score),[16],1.75
same,glycan array binding signal (z-score),[17],-0.369
same,glycan array binding signal (z-score),[18],0.095
same,glycan array binding signal (z-score),[19],-0.326
same,glycan array binding signal (z-score),[20],-0.448
same,glycan array binding signal (z-score),[21],-0.507
same,glycan array binding signal (z-score),[22],0.042
same,glycan array binding signal (z-score),[23],-0.112
same,glycan array binding signal (z-score),[24],2.34
same,glycan array binding signal (z-score),[25],0.051
same,glycan array binding signal (z-score),[26],-0.23
same,glycan array binding signal (z-score),[27],-0.323
same,glycan array binding signal (z-score),[28],0.059
same,glycan array binding signal (z-score),[29],-0.199
same,glycan array binding signal (z-score),[30],0.129
